According to PubChem BioAssay AID1768 (National Center for Advancing Translational Sciences (NCATS), 2009):
Where “and” joins values, the source holds several entries; their conditions need not be identical. Identical values can stand only once. About 620 (0.23%) of roughly 270,000 compounds were called active. Inconclusive results, whose numbers are uncertain, are shown with a selection of clear calls. Calls come from the whole dose curve; as a rule, active = well fitted inhibition curve with a large enough effect in the polarisation, with a control signal flat (not every such curve was filed as active); inconclusive = small, poorly fitted or top-dose-only effect, or effect the other way, or a change in a side signal; inactive = no such curve, though single readings can be large or run the other way; the % refers to the polarisation. A potency beside an inconclusive call is a rough fit, not a confirmed value. “Side channel” marks fits to a control or component signal instead of the main read-out.
Potency is the fitted concentration of half-maximal effect; tags give direction and shape of the fitted curve or compound fluorescence and quenching.
Throughout, for FP activity change, negative = inhibition: % of control where 0% means no effect.

What follows are compounds tested against Menin (Homo sapiens) (UniProt O00255) (assay: qHTS Assay for Inhibitors Targeting the Menin-MLL Interaction in MLL Related Leukemias: Competition With Texas Red Labeled MLL-derived Mutant Peptide). Conditions: fluorescence polarization; FP activity change, negative = inhibition: at 61.6 µM (top of the series).
UniProt O00255, sequence (O00255 whole entry, looked up): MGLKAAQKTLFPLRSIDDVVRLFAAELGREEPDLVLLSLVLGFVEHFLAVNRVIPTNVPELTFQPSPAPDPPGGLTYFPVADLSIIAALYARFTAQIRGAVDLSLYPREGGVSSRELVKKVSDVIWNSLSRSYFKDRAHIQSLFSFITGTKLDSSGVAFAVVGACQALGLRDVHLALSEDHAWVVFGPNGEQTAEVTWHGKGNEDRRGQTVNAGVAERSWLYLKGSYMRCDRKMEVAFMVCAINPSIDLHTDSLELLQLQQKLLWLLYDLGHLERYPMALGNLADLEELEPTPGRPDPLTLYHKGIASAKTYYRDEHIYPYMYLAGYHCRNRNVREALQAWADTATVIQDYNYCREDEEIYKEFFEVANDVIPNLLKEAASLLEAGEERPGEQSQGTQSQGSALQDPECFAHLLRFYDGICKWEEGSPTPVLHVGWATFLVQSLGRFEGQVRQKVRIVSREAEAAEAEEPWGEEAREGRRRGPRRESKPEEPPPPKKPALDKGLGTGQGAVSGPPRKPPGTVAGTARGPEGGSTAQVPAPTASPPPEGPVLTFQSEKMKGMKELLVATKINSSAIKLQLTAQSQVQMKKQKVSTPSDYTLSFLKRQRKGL
With CCC(=O)N1N=C(c2c(-c3ccccc3)c3cc(Cl)ccc3[nH]c2=O)CC1c1ccco1 (stereo unspecified) the Potency was inconclusive: 11.2 µM [fluorescent, side channel, partial curve].
For Cc1ccc(N=Nc2c(O)ccc3n[nH]nc23)cc1, the Potency was inconclusive: 11.2 µM [quencher, side channel, partial curve].
O=C(Nc1nnc(S(=O)(=O)N2CCCCCC2)s1)c1ccccc1Br was tested, and the “FP activity change, negative = inhibition” value was inactive: 8.14%.
In the case of CC1CN(CC(O)COC2CCC(C(C)(C)C)CC2)CC(C)O1 (stereo unspecified), the Potency is reported as inconclusive: 22.4 µM [fluorescent, side channel, partial curve].
With CCOc1ccc(NC(=O)/C(C#N)=C/c2ccc(N3CCCC3)c(C)c2)cc1 the Potency was inconclusive: 39.8 µM [fluorescent, single point].
For COc1ccc(CCNC(=O)Nc2ccc(F)cc2F)cc1OC, the Potency was inconclusive: 0.631 µM [inhibitor, full curve, poor fit].
With O=C1c2cccc3c(Nc4ccccc4Cl)c([N+](=O)[O-])cc(c23)C(=O)N1CCO the Potency was inconclusive: 25.1 µM [quencher, side channel, single point].
With CC(C)CCn1c(SCC(=O)N2CC(=O)Nc3ccccc32)nc2scc(-c3cccs3)c2c1=O the Potency was inconclusive: 28.2 µM [quencher, side channel, single point].
In the case of COc1cccc(Nc2nc(-c3ccc4c(c3)OCCO4)cs2)c1, the Potency is reported as inconclusive: 11.2 µM [quencher, side channel, partial curve].
With C/C(=N\Nc1ccc([N+](=O)[O-])cc1)c1cc2ccccc2o1 the Potency was inconclusive: 11.2 µM [quencher, side channel, partial curve].
For O=C(Nc1nc(-c2ccc(F)cc2)cs1)c1ccc(N2C(=O)CCC2=O)cc1, the Potency was inconclusive: 35.5 µM [quencher, side channel, single point].
O=C(COC(=O)C1CC(O)CN1S(=O)(=O)c1ccc(Cl)cc1)c1ccccc1 (stereo unspecified) was tested, and the “FP activity change, negative = inhibition” value was inactive: 5.3%.
O=C(O)c1cccc(Nc2nc(C(F)(F)F)nc3ccccc23)c1 was tested, and the Potency was inconclusive: 12.6 µM [quencher, side channel, partial curve].
Cc1cc(N2CCOCC2)nc2ccc(NC(=O)CCC(=O)N3CCN(c4cccc(C(F)(F)F)c4)CC3)cc12 was tested, and the Potency was inconclusive: 3.16 µM [inhibitor, partial curve].
Cc1cc(C#N)c(C)c(SCc2[nH]nc3c2C(c2ccccc2)C(C#N)=C(N)O3)n1 (stereo unspecified) was tested, and the Potency was inconclusive: 20 µM [quencher, side channel, partial curve].
O=C(N/N=C/c1c[nH]c2ccccc12)c1cc(-c2ccc(-c3ccccc3)cc2)n[nH]1 was tested, and the Potency was inconclusive: 3.16 µM [quencher, side channel, full curve].
With COc1ccc2oc(-c3ccc(C)c(NC(=O)CSc4ccc(Cl)cc4)c3)nc2c1 the “FP activity change, negative = inhibition” value was inactive: 41.4%.
With Cc1ccc(-c2cc(C(F)(F)F)c(C#N)c(SCC(=O)O)n2)cc1 the “FP activity change, negative = inhibition” value was inactive: 20%.
For CC1CCCC(NCC(O)COC(c2ccc(F)cc2)c2ccc(F)cc2)C1C (stereo unspecified), the Potency was inconclusive: 3.98 µM [fluorescent, side channel, full curve, poor fit].
In the case of Nc1c(C(=O)c2ccccc2)sc2snc(SCC(=O)c3ccccc3)c12, the Potency is reported as inconclusive: 22.4 µM [quencher, side channel, partial curve].
With Clc1nnc(N2CCCCC2)c2ccccc12 the Potency was inconclusive: 15.8 µM [quencher, side channel, partial curve].
Cc1cnc(CNc2nc(-c3cccnc3)nc3ccccc23)cn1 was tested, and the Potency was inconclusive: 39.8 µM [inhibitor, partial curve].
For C[C@@H](C(=O)Nc1ccc2ccccc2c1)[C@@H]1C[C@@]1(C)[C@@H](NS(=O)(=O)c1ccc2ccccc2c1)c1ccccc1, the Potency was inconclusive: 14.1 µM [fluorescent, side channel, partial curve].
In the case of O=C(COc1ccc(C(=S)N2CCOCC2)cc1)N1CCCC1, the “FP activity change, negative = inhibition” value is reported as inactive: 12%.
With CCN(CC)CC(=O)Nc1sc(C)cc1C(=O)c1ccccc1 the Potency was inconclusive: 7.08 µM [fluorescent, side channel, partial curve].
With O=C(c1ccccc1)C1Oc2ccccc2C2CC(c3cccs3)=NN12 (stereo unspecified) the Potency was inconclusive: 17.8 µM [inhibitor, single point].
C#CCOCCOCCOCCNc1nc(N2CCN(C(=O)[C@H](CCC(=O)O)n3cc(C(N)CC(C)C)nn3)CC2)nc(N2CCN(C(=O)[C@H](Cc3cc4ccccc4[nH]3)n3cc(C(N)CC(C)C)nn3)CC2)n1 (stereo partly specified) was tested, and the Potency was inconclusive: 1.41 µM [fluorescent, side channel, full curve, poor fit].
CCOc1cccc(C(=O)Nc2ccc3oc(Cc4ccc(Cl)cc4)nc3c2)c1 was tested, and the Potency was inconclusive: 8.91 µM [quencher, side channel, partial curve].
Cn1cnnc1Sc1ccc(/C=C/C(=O)c2ccc(O)cc2)cc1[N+](=O)[O-] was tested, and the Potency was inconclusive: 25.1 µM [quencher, side channel, partial curve].
COC(=O)c1sc2ncccc2c1OCc1ccc(Cl)cc1 was tested, and the “FP activity change, negative = inhibition” value was inactive: 0.0365%.
In the case of COc1ccc(-c2c(-c3ccc(OC)cc3O)nc(C)nc2C(F)(F)F)cc1, the Potency is reported as inconclusive: 39.8 µM [inhibitor, single point].
For Cc1[nH]nc(N)c1N=Nc1ccc(Br)cc1, the Potency was inconclusive: 39.8 µM [quencher, side channel, partial curve].
O=C(Nc1nnc(-c2ccccc2)o1)c1cc(-c2cccs2)nc2ccccc12 was tested, and the Potency was inconclusive: 10 µM [quencher, side channel, partial curve].
In the case of Cc1cc(C)n(C2CC(=O)N(c3cccc(Cl)c3)C2=O)n1 (stereo unspecified), the Potency is reported as inconclusive: 10 µM [quencher, side channel, partial curve].
For Cc1ccc(-n2c(C)c(C)c3c(NCCO)ncnc32)cc1, the Potency was inconclusive: 3.16 µM [quencher, side channel, single point].
For Cc1cc(C)c(/C=C2\C(=O)Nc3ccccc32)[nH]1, the Potency was inconclusive: 20 µM [quencher, side channel, single point] and inconclusive: 22.4 µM [quencher, side channel, partial curve] and inconclusive: 20 µM [quencher, side channel, partial curve].
C[C@@H](C(=O)Nc1ccc2ccccc2c1)[C@H]1C[C@]1(C)[C@H](N)c1ccccc1 was tested, and the “FP activity change, negative = inhibition” value was inactive: -18.7%.
In the case of C=CCOc1cccc(CNCCCN2CCOCC2)c1, the Potency is reported as inconclusive: 7.08 µM [inhibitor, single point].
In the case of CC1(C(=O)Nc2ccc3ccccc3c2)CC1(Br)Br (stereo unspecified), the Potency is reported as inconclusive: 39.8 µM [quencher, side channel, single point].
In the case of CC1(C)SC(=S)N(NC(=O)Nc2ccccc2)C1N(O)C(=O)Nc1cccc2ccccc12 (stereo unspecified), the Potency is reported as inconclusive: 28.2 µM [quencher, side channel, single point].
Fc1ccc(OCc2cc(-c3ccccc3)no2)cc1 was tested, and the “FP activity change, negative = inhibition” value was inactive: 1.81%.
O=C(Nc1ccc([N+](=O)[O-])cc1)c1ccccc1 was tested, and the Potency was inconclusive: 31.6 µM [quencher, side channel, single point].
In the case of CCN1CCN(CC(=O)N2N=C(c3ccc(OC)cc3)CC2c2ccc(OC)cc2)C(=O)C1=O (stereo unspecified), the Potency is reported as inconclusive: 35.5 µM [fluorescent, side channel, partial curve].
Nc1nc(CSc2nc3ccccc3s2)nc(Nc2ccccc2)n1 was tested, and the Potency was inconclusive: 0.794 µM [quencher, side channel, full curve].
Cc1noc(C)c1COC(=O)c1ccc(-c2nc3ccccc3s2)s1 was tested, and the “FP activity change, negative = inhibition” value was inactive: 11%.
In the case of CCN(CC)CC(=O)Nc1sc2c(c1C(=O)c1ccccc1OC)CCC2, the Potency is reported as inconclusive: 7.08 µM [fluorescent, side channel, full curve].
Cc1ccc(SC2=C(Sc3ccc(C)cc3)C(=O)c3ccccc3C2=O)cc1 was tested, and the Potency was inconclusive: 25.1 µM [quencher, side channel, partial curve].
CN1/C(=C\C(=O)Nc2ccc(Br)cc2)C(C)(C)c2ccccc21 was tested, and the Potency was inconclusive: 39.8 µM [quencher, side channel, single point].
With COc1ccc2cc(CN(CC3CCCO3)C(=O)Nc3ccccc3)c(=O)[nH]c2c1 (stereo unspecified) the Potency was inconclusive: 39.8 µM [inhibitor, single point].
COCC(=O)NCc1ccc2c(c1)cc(C)n2C was tested, and the “FP activity change, negative = inhibition” value was inactive: -19.2%.
For Cc1ccc(C2NC(=O)c3c(sc4c3CCN(C)C4)N2)s1 (stereo unspecified), the Potency was inconclusive: 14.1 µM [inhibitor, partial curve].
In the case of COc1cc(/C=N/NC(=O)c2cc(-c3ccc4c(c3)OCO4)n[nH]2)ccc1O, the Potency is reported as inconclusive: 39.8 µM [quencher, side channel, single point].
For Cc1cccc(N2CC(C(=O)Nc3nnc(SCc4ccccn4)s3)CC2=O)c1 (stereo unspecified), the Potency was inconclusive: 31.6 µM [quencher, single point].
In the case of COc1ccccc1CN1CCC(n2nccc2NC(=O)c2ccccc2Cl)CC1, the Potency is reported as inconclusive: 28.2 µM [inhibitor, single point].
With CN(C)c1ccc(/C=N/n2ncc3ccccc32)cc1 the Potency was inconclusive: 20 µM [quencher, side channel, partial curve].
For C/C=C/c1ccc(OCCOc2cccc3cccnc23)c(OC)c1, the Potency was inconclusive: 35.5 µM [fluorescent, side channel, single point].
